To fix the notation:
B1: LINE1-mini (parent)
chain: GGCAGAGCUCAACACAGCGUGGCAAAGUGGCUGUGGCUAGACUGCC

The source gives no read counts; variants with many changes may rest on few reads.

Variants of B1 are the subject of this data set. Put plainly: self-cleavage, relative activity (ratio to wild type); higher = more cleavage; in vitro, sequencing; the parent is a self-cleaving ribozyme.
Turning to GGCAGACCUCUACACCGCGUGGCAAGGUGGCUGUGGCUAGACUGCC, the self-cleavage stood at 0.02.

With GGCAGACAUCAACACAGCGUGGCAAAGUUGCUGUGGCUAGACUGCC, the self-cleavage stood at 0.34.

As for GGCAGAACUCAACACACCGUGGCAAUUUGCCUGUGGCUAGACUGCC, the self-cleavage came out at 0.1.

As for GGCAGAACUCAACACAGCGUGGCAAAGUCGCUGUGGCCAGACUGCC, the self-cleavage worked out at 0.04.

For the variant GGCAGAACUCAACACAGCUUGGCAAAGUGGCGGUGGCUAGACUGCC, the self-cleavage came out at 0.08.

Consider GGCAGAACUCAACACAGCGUGCCAAAGUGGCUGUGGCUAGACUCCC, for which the self-cleavage amounted to 0.09.

With GGCAGAACACAACACAGCGUGGCAAAGUGGCUGUGGCUCGACUGCC, the self-cleavage was found to be 0.17.

Turning to GGCAGACAUAAACACAGCGCGGUAAAGUGGCUGUGGCUAGACUGCC, the self-cleavage came to 0.02.

On to GGCAGAACGCAAGACAGCGUGGCAAAGUGACUGUCGAUAGACUGCC, for which the self-cleavage turned out to be 0.01.

Take GGCAGACCUCAACUCAGCGUGGCAAAAUGGCUGUGGCUAGAAUGCC: the self-cleavage worked out at 0.04.

For the variant GGCAGAACUCAACACAGCGUGGCAAAGUGGCUGUGGAUAGACUGCG, the self-cleavage was 0.03.

GGCAGACAUCAACACAGCGCGGCAGAUUGGCUGUGGUUAGACUGCC: the self-cleavage worked out at 0.1.

GGCAGAACUCAACACAGCGUGGCAAAGUGUGUGUGGCUAGACUGCC: the self-cleavage came to 0.03.

For GGCAGAACUCAACAUAACGUGGCCAAGUUGCUGUGGCUAGACUGAC, the self-cleavage is 0.02.

In the case of GGCAGAACCCAACAAAGCGUGGCAAAGUGGCGGUGGCUAGACUGCC, the self-cleavage was 0.02.

In the case of GGCAGAACCCAACACACCGUGGCAAAGGGGCUGCGGCUAGACUGCC, the self-cleavage came out at 0.01.

As to GGCAGACAUCAACACAGCUUGGCAAAGUGGCUGUGGCUAGACUCCC, the self-cleavage stood at 0.12.

Turning to GGCAGACCUCACCACAGCGUGUCAAAGUGGCGGUGGCUAGACUGCC, the self-cleavage amounted to 0.07.

In the case of GGCAGAACUCAACACACCGUGGCAAAGUGGCGAUGGCUAGACUGCC, the self-cleavage was 0.03.

Consider GGCAGAACUCAACACAGCGUGGUAAAGUGGCUGUGGCUAGACUGCA, for which the self-cleavage is 0.26.

As to GGCAGACAUCAACACAGCGUGGCCUUGUGGCUGUGGCUAGACUCCC, the self-cleavage amounted to 0.2.

As to GGCAGAACUCAACACAGCGUAGCAAAGUCGCUGUGGCUAGACUGCC, the self-cleavage is 0.05.

In the case of GGCAGAACUCAACACAGCGUGGCAAAGUGGCUAUAACUAGACUGCC, the self-cleavage was determined as 0.03.

Take GGCAGAACUCAACACAGCGUGGCAAAGUGGCUUUGGCUAGUUUGAC: the self-cleavage worked out at 0.16.

GGCAGACGUCAACACAGCGUGGCAAAUUGGCUGUGGCUAGACUACC: the self-cleavage was 0.16.

Take GGCAGAACCCAACACAGCCUGGCAAAGUUGCUGUGGCUAGACUGAC: the self-cleavage is 0.01.

For GGCAGACAUCAACACAGCGUGGCAAAGUGGCUGUGGCUAGGCUGCC, the self-cleavage was determined as 0.11.

For the variant GGCAGACCUCAACCCAGCUGGGCAAAGUGGCUGUGGGUAGACCGCC, the self-cleavage came to 0.07.

For the variant GGCAGAACGCAACACAGCGUGGCACAGUGGCUGUGGCUAGACUGCC, the self-cleavage stood at 0.05.

For the variant GGCAGACCUCAACCCCGCGUGGCAAACUGUCUGUGGCUAGACUGCC, the self-cleavage turned out to be 0.06.

Turning to GGCAGACCUCAACACUGCGUGGCAAAGUUGCUGUGGCACGCCUGCC, the self-cleavage stood at 0.

With GGCAGACCUCAACACCGCGUGGCAACGUGGCUGUGGCUAGACUGCC, the self-cleavage came to 0.02.

On to GGCAGACCUCAACUCAGCGUGGCAAAGUCGCUUUGGCUAGACUGCC, for which the self-cleavage was 0.03.

GGCAGAACUCAACACAGCGUGGCAAAGUGGCUGUAGCUAUACUACC: the self-cleavage was found to be 0.23.

With GGCAGAACUCAACACAGCGUGGCAAAGCGGCUGUAGCUAGACUGCC, the self-cleavage is 0.44.

GGCAGACCUCAACACAGCGUGGCAGAGUGGCAUUGGCUAGACUGCC: the self-cleavage came to 0.03.

In the case of GGCAGAACGCAACAAAGCGUGGAAAAGGUGCUGUGGCUAGACUGCC, the self-cleavage came to 0.02.

For the variant GGCAGAACUCAACAUAGCGUGGCAAAGCGGCUGUGGCUAGACUGCC, the self-cleavage was 0.41.

With GGCAGACCUCUACACAGCGUGGCAAAGUGGCUGUGGCUAGACUACC, the self-cleavage came out at 0.01.

As to GGCAGAACUCAACACAGUGUAGCAAAGUGGCUGUGGCUAGACUGCU, the self-cleavage was 0.11.

For GGCAGAACUCAACACAGCGUGACAAAGUGGCUGUGGCUAGACUGGC, the self-cleavage was found to be 0.08.

For the variant GGCAGAACUCAACACACCGUGGCAAAGAGGUUGUGGCUAGACUACC, the self-cleavage was 0.05.

For the variant GGCAGAACUCAACACAGCGUGGCAAAUUGUCUGUGGCUAGACUGCU, the self-cleavage turned out to be 0.05.

For GGCAGAACUCAACACAGCUUGGCAAAGUGGCUGUGGCUAUACUGCG, the self-cleavage was found to be 0.34.

GGCAGAACUCAACACAGCGUGGCAAAGUGGCUGAGGCUAGACUCCC: the self-cleavage was found to be 0.05.

GGCAGAACUCAACACAGCCUGGCAAAGUGGCUGUUGCUAGACUGCC: the self-cleavage came to 0.06.

On to GGCAGACAUCAGCACAGCGUGGCAAAGUGGCUGUGGCUAGACUGCC, for which the self-cleavage came to 0.1.

For the variant GGCAGAACUCAACACAGCGUGGCAAAGUGGCUGUGGCGAGCCUGCC, the self-cleavage was 0.

GGCAGAACUCAACACAGCGUGGCAAAGUGGCGGUGGCGAGACUGCC: the self-cleavage is 0.02.

In the case of GGCAGACCUCAACGCAACGUGGCAAAGUGUCUCUGGAUAGACUGCC, the self-cleavage was found to be 0.02.

Regarding GGCAGACCUCAACACAGCGUGGCAGAGUUGCUGUGGCUAGACUGCC, the self-cleavage worked out at 0.1.

For GGCAGAACGCAACACAGCGUGACAAAUUGGCUGUGGCUAGACUGCC, the self-cleavage came to 0.21.

In the case of GGCAGAACUCAACACAGCGUGGCAAAGUGGCCGGGGCUAGACUGCC, the self-cleavage is 0.25.

For GGCAGACCUCAACCCAGCGUGGCUAAGUGCUUGUGGCUAGACUGCC, the self-cleavage was found to be 0.03.

Take GGCAGACCUCACAACAGCGUGGCAAAGUGGUUGUGGCUAGACUGCC: the self-cleavage stood at 0.02.

With GGCAGAACUCAACACAGCGUUGCAAAGUGCCUGUGGCUAGACUGCC, the self-cleavage turned out to be 0.15.

These data come from the RNAGym collection of RNA variant scans (doi:10.7554/elife.90254).
